In all, about 81,000 sequences were measured (“one-hybrid fitness for binding NBS DNA”: median about -0.1, highest 2% from about 0.36 on). This is one part of the list.
B1: Caulobacter ParB omega fusion; a variant is named by its letters at X, in order, B8GW30 (parent)
chain: MESVVVGEPGMSEGRRGLGRGLSALLGEVDAAPAQAPGEQLGGSREAPIEILQRNPDQPRRTFREEDLEDLSNSIREKGVLQPILVRPSPDTAGEYQIVAGERAWRAAQRAGLKTVPIMVRELDDLAVLEIGIIENVQRADLNVLEEALSYKVLMEKFERTQENIAQTIGKSXSHVANXMRLLXLPDEVQSYLVSGELTAXHARAIAAAADPVALAKQIIEGGLSVRETEALARKAPNLSAGKSKGGRPPRVKDTDTQALESDLSSVLGLDVSIDHRGSTGTLTITYATLEQLDDLCNRLTRGI

Variants of: B1
Experiment: one-hybrid fitness for binding NBS DNA (the Noc-binding site; scaled: cognate 1, non-cognate 0); higher = stronger binding
Conditions: with NBS DNA site
Outline: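 On M9-minus-histidine containing 0.1 mM IPTG and 5 mM 3-AT, E. coli USO cells with a HIS3 reporter, site 19 bp from the promoter, grew 48 hours at 37°C to select Caulobacter ParB libraries randomised at four specificity codons. Plasmids from before and after were Illumina-sequenced, with three replicate libraries pooled and variants under 10 reads left out. Fitness is the log change in variant-to-wild-type read ratio, rescaled against cognate and non-cognate.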

Row | Variant | one-hybrid fitness for binding NBS DNA
1 | HPHP | ≤ 0.2
2 | IKLV | ≤ 0.2
3 | QLII | ≤ 0.2
4 | WPTL | ≤ 0.2
5 | GQNR | ≤ 0.2
6 | QIPV | ≤ 0.2
7 | EHNC | ≤ 0.2
8 | QKSF | ≤ 0.2
9 | FRNC | ≤ 0.2
10 | FTPS | ≤ 0.2
11 | SKVC | ≤ 0.2
12 | YLSS | ≤ 0.2
13 | WWLS | ≤ 0.2
14 | DPNC | ≤ 0.2
15 | VHQS | ≤ 0.2
16 | RTHL | ≤ 0.2
17 | LAYN | ≤ 0.2
18 | KRHQ | ≤ 0.2
19 | CFKR | ≤ 0.2
20 | TYVF | ≤ 0.2
21 | SASM | ≤ 0.2
22 | YWDG | ≤ 0.2
23 | TAQW | ≤ 0.2
24 | VYPR | ≤ 0.2
25 | RRGM | 0.237
26 | LRTH | ≤ 0.2

Row | Variant | one-hybrid fitness for binding NBS DNA
27 | TVCY | ≤ 0.2
28 | MDSR | ≤ 0.2
29 | NIWG | ≤ 0.2
30 | CLLR | ≤ 0.2
31 | AHVG | ≤ 0.2
32 | QYGN | ≤ 0.2
33 | SGHL | ≤ 0.2
34 | QTNF | 0.244
35 | PSIW | ≤ 0.2
36 | TYNI | ≤ 0.2
37 | PPAK | ≤ 0.2
38 | NQGR | ≤ 0.2
39 | TTMY | ≤ 0.2
40 | MRRI | ≤ 0.2
41 | SAWT | ≤ 0.2
42 | YVKR | ≤ 0.2
43 | SALW | ≤ 0.2
44 | CMPT | ≤ 0.2
45 | HMGS | ≤ 0.2
46 | SHDG | ≤ 0.2
47 | SPMR | ≤ 0.2
48 | QLWI | ≤ 0.2
49 | KIQC | ≤ 0.2
50 | RCRA | 0.422
51 | EAWR | ≤ 0.2
52 | MVSG | ≤ 0.2

Row | Variant | one-hybrid fitness for binding NBS DNA
53 | CLCS | ≤ 0.2
54 | CWYT | ≤ 0.2
55 | LCTT | ≤ 0.2
56 | ISQK | ≤ 0.2
57 | ANQV | ≤ 0.2
58 | PSYC | ≤ 0.2
59 | RTNP | ≤ 0.2
60 | ISNT | ≤ 0.2
61 | TYAP | ≤ 0.2
62 | NTTC | ≤ 0.2
63 | CSNS | ≤ 0.2
64 | PLWC | ≤ 0.2
65 | EDPE | ≤ 0.2
66 | PLTM | ≤ 0.2
67 | KIKL | ≤ 0.2
68 | RPPF | ≤ 0.2
69 | WESH | ≤ 0.2
70 | PYQC | ≤ 0.2
71 | VLQR | ≤ 0.2
72 | CIHR | ≤ 0.2
73 | VMPT | ≤ 0.2
74 | TKML | ≤ 0.2
75 | GLLP | ≤ 0.2
76 | PQSE | ≤ 0.2
77 | VTMN | ≤ 0.2
78 | AHQR | ≤ 0.2

Row | Variant | one-hybrid fitness for binding NBS DNA
79 | VDYK | ≤ 0.2
80 | CCLT | ≤ 0.2
81 | EVPG | ≤ 0.2
82 | RINA | ≤ 0.2
83 | DACC | ≤ 0.2
84 | QAPN | ≤ 0.2
85 | DKYT | ≤ 0.2
86 | RQWS | ≤ 0.2
87 | AYNC | ≤ 0.2
88 | PNTI | ≤ 0.2
89 | EPLS | ≤ 0.2
90 | SGRG | ≤ 0.2
91 | KFRG | ≤ 0.2
92 | VFRC | ≤ 0.2
93 | ERER | ≤ 0.2
94 | YNTA | ≤ 0.2
95 | LPRR | ≤ 0.2
96 | ADRA | ≤ 0.2
97 | FESG | ≤ 0.2
98 | NVVS | ≤ 0.2
99 | NELT | ≤ 0.2
100 | SWKY | ≤ 0.2
101 | GYRS | ≤ 0.2
102 | QTGG | 0.204
103 | MSLN | ≤ 0.2
104 | REEA | ≤ 0.2

Row | Variant | one-hybrid fitness for binding NBS DNA
105 | RASK | ≤ 0.2
106 | LNKW | ≤ 0.2
107 | MVRF | ≤ 0.2
108 | SAGS | ≤ 0.2
109 | HHQR | ≤ 0.2
110 | CPAR | ≤ 0.2
111 | HKNV | ≤ 0.2
112 | ALTA | ≤ 0.2
113 | VMTK | ≤ 0.2
114 | PEDL | ≤ 0.2
115 | GSKM | ≤ 0.2
116 | PFGN | ≤ 0.2
117 | TYSE | ≤ 0.2
118 | DSVI | ≤ 0.2
119 | NWPT | ≤ 0.2
120 | AYYC | ≤ 0.2
121 | FDSG | ≤ 0.2
122 | GNVT | ≤ 0.2
123 | PTDE | ≤ 0.2
124 | QRHP | 0.303
125 | ANVP | ≤ 0.2
126 | LYFK | ≤ 0.2
127 | QALE | ≤ 0.2
128 | DFMG | ≤ 0.2
129 | LVTT | ≤ 0.2
130 | PFVC | ≤ 0.2

Row | Variant | one-hybrid fitness for binding NBS DNA
131 | GWRS | ≤ 0.2
132 | PGWC | ≤ 0.2
133 | RHLV | ≤ 0.2
134 | MPEN | ≤ 0.2
135 | PHPL | ≤ 0.2
136 | NTVQ | ≤ 0.2
137 | VYQC | ≤ 0.2
138 | TMKL | ≤ 0.2
139 | MVTN | ≤ 0.2
140 | DGKL | ≤ 0.2
141 | CTRT | ≤ 0.2
142 | SPNA | ≤ 0.2
143 | GRLD | ≤ 0.2
144 | NGEK | ≤ 0.2
145 | RSIK | ≤ 0.2
146 | SVAR | ≤ 0.2
147 | AYEG | ≤ 0.2
148 | ILKF | ≤ 0.2
149 | RFWN | ≤ 0.2
150 | PHHF | ≤ 0.2
151 | LCNT | ≤ 0.2
152 | PPDK | ≤ 0.2
153 | AYFS | ≤ 0.2

— a collection of fitness landscapes (doi:10.1016/j.celrep.2020.107928)
